From the supplement of paper PMC11417369
± gives the standard deviation of the averaged measurements. Some of the results follow.

Tested on: PfAP2-I AP2 domain 3 (GST-tagged)
Assay: gcPBM binding intensity (ln(normalized median fluorescence intensity)); higher = stronger DNA binding
In short: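 For binding intensity, the highest Masliner-normalised natural-log median intensity across replicate spots of either probe orientation was taken. Protein bound to the array was stained with Alexa488 anti-GST antibody and scanned at 488 nm. The protein, GST-tagged P. falciparum DNA-binding domains from E. coli at about 25 μg on average, had been applied for 1 h to an Agilent 4 × 180k array of primer-extended double-stranded 36-bp intergenic genomic probes and negative controls.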

Sequence | gcPBM binding intensity (ln)
CTGATATATAGATGTAGTACATAAAAATGACGAATT [XGTACX_site5612] | 8.03 ± 0.57
TAAATATATTTATATTGTACATTTATGTTGATACCA [XGTACX_site228] | 7.54 ± 0.45
ATATATATATGTATATGTACATATATATACACATAT [XGTACX_site140] | 8.93 ± 0.028
TTTTGTGAATTTTAGATTTTTTAATACAAGAATATT [CACACA_negctrl_site606] | 7.53 ± 0.47
TATATATATAATATATGTACTGATATGCTATTTACT [XGTACX_site841] | 8.575 ± 0.064
ATATTTACCACTGTATGTACATATATAAAATATATC [XGTACX_site6373] | 8.31 ± 0.33
AAAAAAAAAGGTACTACACACTATTATCAATAGAAA [CACACA_site91] | 7.67 ± 0.24
TACTTATTATGAAACACACACCAAAACTACAGAATA [CACACA_site6265] | 8 ± 0.52
CAAAATAAAAAATTCACACACATATAAATATAAATA [CACACA_site7065] | 7.51 ± 0.49
ATATATATATAGTGCACACATATAAAATATATATAA [CACACA_site2745] | 11.29 ± 0.078
TTTACAGATACTTGCTCACACATATGTATAAAAATA [CACACA_site4928] | 8.02 ± 0.32
TATAATATATATAGGAGTACGTATGTATATTTATAA [XGTACX_site3521] | 7.89 ± 0.58
ATATTTTATAATTTTACACACCATATAAAATAATTC [CACACA_site2797] | 8.13 ± 0.41
ACATGAAACTATAAACGTACATACATACATATATAT [XGTACX_site5011] | 8.09 ± 0.6
AATAGTTAAATGTACACACTAACTACATGGAATATA [CACACA_site3262] | 7.89 ± 0.3
TATATATAAAACATATGTACATATATATATATATAT [XGTACX_site419] | 9.49 ± 1
AAGTAAAAAAATAGCACACACACAAAAACACCCACA [CACACA_site1291] | 8.81 ± 0.16
AGAGGCCAGCTTTCTCTTCTAAACATGTACAAAAAT [GTGCAC_negctrl_site98] | 7.63 ± 0.64
TGAGCACAAATACAGGTGCATATAAAATATATGACG | 10.3 ± 0.3
AAAAAAATAAAATGTTCACACATTTCACAATTACTT [CACACA_site4859] | 7.4 ± 0.68
TTTTTAACATTTAAATGTACATGTTACAATTTAAAG [XGTACX_site8789] | 7.65 ± 0.47
TACTAAAACCCATACACACACATATATATAGTACCA [CACACA_site3184] | 7.83 ± 0.39

Sequence | gcPBM binding intensity (ln)
AGAGACTTAGAAAACACACATACATAAGATAATTTA [CACACA_site2377] | 7.67 ± 0.65
TTTTTATTTTTATACATATAATATATTATGATTAAA [CACACA_negctrl_site214] | 7.87 ± 0.42
ACAGCATAATCATGCTGTACATTATTTTCTTAAGTA [XGTACX_site8456] | 7.4 ± 0.67
ACTTACACATTTATTACACACATAAAGGAAAATTTT [CACACA_site1356] | 8.44 ± 0.46
TTAAAAAATAACAAGGTGCAAATAGGTTTATAAAAT | 10.84 ± 0.064
ATATTTAAATGGATCACACATATATATATATATATA [CACACA_site5255] | 9.41 ± 0.66
CGCGAAGTAGCATTCACACACAGCAAAATATATATA [CACACA_site3495] | 7.95 ± 0.78
CACTAATAGTGGATTACACACATATATATGTATATA [CACACA_site2531] | 8.31 ± 0.43
ATATAATGACAAGTATAAGTATCACAAAGAAATAAA [CACACA_negctrl_site1403] | 7.78 ± 0.54
CCACTTTTTGAAGACACACACAAAAAAAAAAAAAAA [CACACA_site2551] | 8.08 ± 0.52
TTTTGAAGAAAATTCTTTTTTTTTTTTTTTTGTAAA [CACACA_negctrl_site102] | 7.02 ± 0.62
ATAACAATTATTTGTCGACACACGTATATGTTATTT [CACACA_site1766] | 7.87 ± 0.58
CAAGCTTTTTCCTTTACACACATTAATTATATATAT [CACACA_site1423] | 8.14 ± 0.56
CATTTTTCTATATGTGCATGTAAGATAAGAATAATT [TGCATGCA_site107] | 8.36 ± 0.49
TTTCGTCATTTTGTTTTTAATTCTACAATTTAGTTA [XGTACX_negctrl_site286] | 7.75 ± 0.69
TCATATAATATTTATATGCACACTTTTCTATATATA [CACACA_site4075] | 9.4 ± 0.15
TAAAATAAAAGTGAAACACACAGTATTTTACAACAT [CACACA_site3811] | 7.38 ± 0.76
AAAATAGCTGTATAGAGTACATATAAATAATGTTGT [XGTACX_site5692] | 7.57 ± 0.58
TGCAAAAAATTCCACACACACACACGCATATAAATA [CACACA_site6696] | 7.95 ± 0.38
AAAAAAAAAAAACACACACACACACCCAAATATATA [CACACA_site150] | 7.91 ± 0.2
CATAATACATATAACACACACAATTATACATAAAAT [CACACA_site3233] | 7.88 ± 0.33
AAAAAAAAAAAAAAAAAAAAAAAAAAAATACGAAAG [GTGCAC_negctrl_site729] | 9.87 ± 0.18

Sequence | gcPBM binding intensity (ln)
ATATATATATATATATGTACTTAAAAAATATATACA [XGTACX_site8952] | 9.34 ± 0.36
TATTTTTTTTGTGTGTGTCCTCATGTAATACTGCAA [XGTACX_site1380] | 8.17 ± 0.24
CTTTTTAATTAATACACACACACACGGATATAAATA [CACACA_site7145] | 8.23 ± 0.47
TATATTAAACTTTGCACACATAATTTAACTACAAAG [CACACA_site3441] | 8.86 ± 0.11
AATCATTTATTGATGGTGCAATATACCATCTAATGA [GTGCAC_site9440] | 11.4 ± 0.76
TCTCATTTTCCCTAAAAAAAAAAATAAATAAAAATA [TGCATGCA_negctrl_site580] | 7.42 ± 0.4
TTTTTCCATATTGTAGCATGCAGTATATATATCATG [TGCATGCA_site530] | 8.01 ± 0.77
ATATTATTTATGTATGCATGCGGCGAAATGGGCTTG [TGCATGCA_site28] | 8.38 ± 0.33
AATGGGTTACACATATGTACATAAAATATAAAAAAT [XGTACX_site3440] | 8.06 ± 0.73
ATTTCTATAAAAATAATCTACATTTTTTTTTTTTTT [CACACA_negctrl_site917] | 7.75 ± 0.61
TATATACATATATATATATGTATAGATAGATACATT [CACACA_negctrl_site1511] | 7.7 ± 0.39
TAACCACAATTTTAATGTACATATATATTTATATAT [XGTACX_site8968] | 7.72 ± 0.3
AATATTTTACAATACACATGCAAATAATATTCTAAA [TGCATGCA_site618] | 7.73 ± 0.65
TTTTGAAAAAATTTTTATAAAAGAATAAAATTATTA [XGTACX_negctrl_site570] | 7.5 ± 0.3
TAAAAATGGAAACACACACACATAAATATATTTTAT [CACACA_site2513] | 7.75 ± 0.74
CAATGCAAGGCTTAAAAAAATGGGCATATTATATAT [GTGCAC_negctrl_site304] | 7.79 ± 0.83
TTTTTTTACAACATTACACACAAATATTCTGGGTTA [CACACA_site3755] | 7.87 ± 0.69
AATATTATATTAAAATGTACAAAAATGAATTACTTT [XGTACX_site1473] | 7.7 ± 0.55
TCACATTTTGGACACGTGCACATATATTTGATACAT | 9.48 ± 0.33
AAAATTAATTATTACAAAAATGAAAAGACATATTTT [GTGCAC_negctrl_site735] | 7.37 ± 0.56
ATTTATATATAAATGTGTACATATATATATATAAAC [XGTACX_site7592] | 7.96 ± 0.48
ATTGTAAGTAAACACACACACATATATCTGTATTTA [CACACA_site4542] | 7.82 ± 0.47

Sequence | gcPBM binding intensity (ln)
CTGAAATTAACAAAAGTGCATAAAAATAAAAAATAT [GTGCAC_site9652] | 10.8 ± 0.38
TACCATGTTCAAATTACACACATATAATGCAATATA [CACACA_site7034] | 8.69 ± 0.35
GTTCTACAAGCCACTGCATGCTGATATAGAATAAAT [TGCATGCA_site138] | 8.16 ± 0.38
TCATATATCCTTATCACACATATAATAAATTCCCTT [CACACA_site4457] | 7.98 ± 0.55
TTCTTTGCTTTTCAAACACACAAAAGTTATTATAGT [CACACA_site6390] | 8.02 ± 0.52
GGAATTGAAAAATCAGCACACACACTAATACATACA [CACACA_site9059] | 8.16 ± 0.47
AATAATTGTTAAAGGTGTACAATACCTACATAAGAA [XGTACX_site4215] | 8.31 ± 0.49
AAATGGCAATAATGGACACACAAATGTTGTTATATA [CACACA_site2819] | 7.68 ± 0.61
AAAAAGGAAATTTACACACACATATAATATACATTA [CACACA_site3296] | 7.67 ± 0.49
ATTTACCAGACCATATGTACATACATAAAACACACA [XGTACX_site3788] | 8.27 ± 0.38
TACACAAGGGGAAAAATATATATATATATATATATA [TGCATGCA_negctrl_site217] | 9.39 ± 0.54
TAAAAAATTTTATATTCACACACATATATATATATA [CACACA_site8109] | 9.31 ± 0.23
TAAAAGTATATATATACACACATAAATATATATGTA [CACACA_site663] | 7.43 ± 0.36
TTGTGAAATAAAATTTGTACACACATATATATATAT [XGTACX_site1078] | 9.485 ± 0.007
AAAATTTAAAGCATGACACACAATTATATTATGTGC [CACACA_site3435] | 7.38 ± 0.61
TTTTTTTTGGAATTCACACAAATATAACATGGGTAT [CACACA_site5185] | 7.89 ± 0.58
TTCTTTTCTTTAGTAGAATGTAAAAAATATAATCTT [XGTACX_negctrl_site290] | 7.65 ± 0.57
ACTTATATATTATGTTGTCCGTCCATTCTCTTTATC [XGTACX_site3769] | 8.09 ± 0.92
TTTTCATTCAATTATATTTATATATATATATATATA [GTGCAC_negctrl_site538] | 9.24 ± 0.4
CAAAATATTTTTATAACACACATATATATAATGTGC [CACACA_site4767] | 7.8 ± 0.52
TACATGTATAAATAAGCACACATGTGGATATGTACA [CACACA_site93] | 8.34 ± 0.35
ACGTGTGATTATAATTGTACTTTAATGTAAGAATGA [XGTACX_site1109] | 7.92 ± 0.45
